Reference: article PMC3160840
No constants are given. Whether binding was seen depends on the method and setting. Binding seen in cells or lysates may run through a third protein. Some entries that bind do so weakly or less than the wild type.

Sequences of proteins named here, by UniProt entry; tags and fusion partners are left off.
UniProt P15682: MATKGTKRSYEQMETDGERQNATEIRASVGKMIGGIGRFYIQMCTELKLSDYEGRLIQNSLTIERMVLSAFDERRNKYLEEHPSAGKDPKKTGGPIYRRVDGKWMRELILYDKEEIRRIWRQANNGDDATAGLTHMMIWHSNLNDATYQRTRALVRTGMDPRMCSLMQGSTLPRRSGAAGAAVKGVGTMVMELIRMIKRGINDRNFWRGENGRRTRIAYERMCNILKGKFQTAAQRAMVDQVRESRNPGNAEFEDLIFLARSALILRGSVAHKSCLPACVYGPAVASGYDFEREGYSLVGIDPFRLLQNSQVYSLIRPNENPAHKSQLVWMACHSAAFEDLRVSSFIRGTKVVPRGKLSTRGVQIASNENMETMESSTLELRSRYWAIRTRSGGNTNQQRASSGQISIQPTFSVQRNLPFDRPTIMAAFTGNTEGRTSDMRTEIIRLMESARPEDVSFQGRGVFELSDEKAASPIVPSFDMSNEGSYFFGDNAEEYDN
UniProt P03430: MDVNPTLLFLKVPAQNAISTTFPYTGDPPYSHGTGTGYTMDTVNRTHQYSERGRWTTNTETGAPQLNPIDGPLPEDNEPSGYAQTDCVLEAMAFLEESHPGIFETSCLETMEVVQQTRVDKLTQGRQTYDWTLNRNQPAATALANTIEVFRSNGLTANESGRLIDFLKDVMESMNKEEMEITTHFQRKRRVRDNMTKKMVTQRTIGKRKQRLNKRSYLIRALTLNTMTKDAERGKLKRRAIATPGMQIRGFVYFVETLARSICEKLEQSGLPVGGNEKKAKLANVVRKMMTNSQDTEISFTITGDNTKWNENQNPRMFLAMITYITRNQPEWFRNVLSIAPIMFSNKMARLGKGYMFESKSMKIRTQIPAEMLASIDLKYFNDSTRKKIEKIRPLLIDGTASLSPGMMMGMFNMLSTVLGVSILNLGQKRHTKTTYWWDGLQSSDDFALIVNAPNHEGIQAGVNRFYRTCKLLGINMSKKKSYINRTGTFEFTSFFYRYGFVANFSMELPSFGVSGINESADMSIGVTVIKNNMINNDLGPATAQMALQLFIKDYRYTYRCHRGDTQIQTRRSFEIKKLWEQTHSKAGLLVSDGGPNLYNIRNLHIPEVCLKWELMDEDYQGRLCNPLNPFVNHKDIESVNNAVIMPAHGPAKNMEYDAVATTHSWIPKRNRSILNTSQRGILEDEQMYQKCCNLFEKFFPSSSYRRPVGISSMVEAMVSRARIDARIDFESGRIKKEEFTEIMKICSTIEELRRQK
UniProt P03427: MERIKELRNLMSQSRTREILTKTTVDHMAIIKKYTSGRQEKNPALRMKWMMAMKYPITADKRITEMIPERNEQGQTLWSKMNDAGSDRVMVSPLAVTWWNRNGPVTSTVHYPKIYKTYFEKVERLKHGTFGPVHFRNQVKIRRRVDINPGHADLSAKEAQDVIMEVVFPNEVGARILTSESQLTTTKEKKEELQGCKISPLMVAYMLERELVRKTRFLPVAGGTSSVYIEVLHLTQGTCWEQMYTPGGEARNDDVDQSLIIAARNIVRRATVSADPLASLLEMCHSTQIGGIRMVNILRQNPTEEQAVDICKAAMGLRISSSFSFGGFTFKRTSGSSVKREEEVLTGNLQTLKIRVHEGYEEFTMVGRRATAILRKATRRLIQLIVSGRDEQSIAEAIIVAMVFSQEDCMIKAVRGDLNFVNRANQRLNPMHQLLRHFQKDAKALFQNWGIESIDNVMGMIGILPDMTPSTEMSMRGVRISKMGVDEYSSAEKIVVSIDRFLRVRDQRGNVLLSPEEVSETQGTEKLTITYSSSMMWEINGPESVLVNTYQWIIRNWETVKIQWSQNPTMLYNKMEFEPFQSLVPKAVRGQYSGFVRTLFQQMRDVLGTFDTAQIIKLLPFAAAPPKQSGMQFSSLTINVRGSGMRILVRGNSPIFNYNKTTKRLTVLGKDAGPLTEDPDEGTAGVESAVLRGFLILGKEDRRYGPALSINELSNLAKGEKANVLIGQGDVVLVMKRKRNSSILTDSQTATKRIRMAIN
UniProt Q9UNP9: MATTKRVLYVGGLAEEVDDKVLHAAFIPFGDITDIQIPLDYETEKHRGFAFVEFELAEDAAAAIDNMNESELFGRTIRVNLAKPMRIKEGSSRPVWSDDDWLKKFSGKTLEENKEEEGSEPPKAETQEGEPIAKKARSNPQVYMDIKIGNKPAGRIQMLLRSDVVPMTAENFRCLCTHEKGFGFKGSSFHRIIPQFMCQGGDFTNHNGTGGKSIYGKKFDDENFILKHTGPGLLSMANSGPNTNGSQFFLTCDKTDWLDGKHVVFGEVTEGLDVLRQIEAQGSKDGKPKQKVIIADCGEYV

What was measured:
[1] = target: NP in 293T cells infected with A/WSN/33 (influenza A virus A/WSN/33 (H1N1)) (UniProt P15682); assay: co-IP
[2] = target: FLAG-tagged NP (influenza A virus A/WSN/33 (H1N1)) (UniProt P15682); assay: co-IP
[3] = target: FLAG-tagged PB1 (influenza A virus A/WSN/33 (H1N1)) (UniProt P03430); assay: co-IP
[4] = target: FLAG-tagged PB2 (influenza A virus A/WSN/33 (H1N1)) (UniProt P03427); assay: co-IP
[5] = target: GST-CypE (Cyclophilin E fused to GST) (human) (UniProt Q9UNP9); assay: pull-down; only the target purified

For “endogenous CypE (from UniProt Q9UNP9 1-301)”, the binding [1] was “binds”.
For “Myc-tagged CypE (from UniProt Q9UNP9 1-301)”, the binding [2] was “binds”, the binding [3] was “no binding” and the binding [4] was “no binding”.
For “NP from MDCK cells infected with influenza A virus (A/WSN/33) (from UniProt P15682 1-498)”, the binding [5] was “binds”.
